Measured values reported in publication PMC11162469, “Discovery of RXFP2 genetic association in resistant hypertensive men and RXFP2 antagonists for the treatment of resistant hypertension” (Scientific Reports, 2024).

Legend:
human LDLa-linker = target: T1, human LDLa-linker (Homo sapiens, UniProt Q8WXD0); assay: Biacore S200 binding to human LDLa-linker protein
T1 construct: human LDLa linker [huRXFP2-LDLa-linker(38-105)-ratFc-8XHIS]; enterokinase cleavage site (C); rat Fc (C, cleaved yes); 8xHis (C, cleaved yes); made in house; host or cells: Expi293
T1 sequence (Q8WXD0 38-105): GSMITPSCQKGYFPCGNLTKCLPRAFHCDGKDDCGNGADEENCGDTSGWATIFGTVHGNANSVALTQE
Method: (§1) Goat anti Rat Fc gamma fragment specific (Jackson Immunoresearch, 112-005-071) was immobilized at 30 µg/mL to a Series S CM5 chip (Cytiva Life Sciences). In three separate runs, twenty different purified recombinant rat anti RXFP2 antibodies were then captured to the CM5 chip at a concentration of 5 µg/mL. The antibody panel was captured; rat LDLa-linker or human LDLa-linker protein was flowed as analyte at the following concentrations: 20 nM, 10 nM, 5 nM, 2.5 nM, […], and 0 nM. Antibody kinetics were evaluated using a 1:1 fit model (Biacore S200).

[1] = Pharmacokinetic study of RXFP2 mAbs in rat; format: in vivo, Wistar Han rats
Method: For the pharmacokinetic study of RXFP2 mAbs in rat, 1G1, 2D4, 4B1, 4G6, 1F2, and 3F3 were prepared in phosphate buffered saline (0.100 mg/mL) with low endotoxin (≤ 0.76 EU/mL). Adult male Wistar Han rats (n = 3/mAb) were administered 1 mg/kg subcutaneously (10 mL/kg). Blood samples (100 µL) were collected in EDTA containing tubes at 0.25, 3, 6 24, 48, 96, 168 (day 7), 336 (day 14), 504 (day 21), and 672 (day 28) hours post dose, immediately centrifuged (6100 rpm), and 50 µL plasma stored at − 80 °C until assay. Rats maintained health throughout the study and were anesthetized (isoflurane to effect) and euthanized on day 28.
Frozen rat plasma samples were thawed and analyzed using a qualified analytical method based on sample dilution, followed by Electrochemiluminescence immunoassay analysis. The lower limit of quantification (LLQ) was 0.1 µg/mL using a 10 µL aliquot of 51-fold diluted rat plasma with a higher limit of quantification (HLQ) of 10 µg/mL. RXFP2 mAbs were captured with LDLa protein and detected with sulfo-tag labeled mouse anti-rat IgG2b. The computer systems that were used to acquire and quantify data included Gyrolab Workstation Version 8.1.5 and Watson LIMS version 7.6.1. Rat pharmacokinetic parameters were calculated by non-compartmental analysis (NCA) analysis using WinNonlin Phoenix 64 (version 8.3). Values are reported in mean ± standard deviation.

[2] = target: T2, human LDLa peptide (UnitProt Q8WXD0 43-80) (Homo sapiens, UniProt Q8WXD0); assay: ELISA binding to linker-less human LDLa peptide
T2 construct: human LDLa peptide (Q8WXD0 43-80)
T2 sequence (Q8WXD0 43-80 limits assumed): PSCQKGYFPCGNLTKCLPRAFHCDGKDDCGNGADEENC
Method: The human/rat RXFP2 cross reactive antibodies belong to two epitope bins and were further evaluated for binding to the linker-less human LDLa peptide (UnitProt Q8WXD0 43-80) by ELISA. […] The different domain requirements for binding are consistent with results from the binning experiment showing 4F6 and 4G6 are in a separate bin from 4B1.
Rat LDLa-linker_ratFc, human LDLa-linker_ratFc, or ratFc, or human LDLa peptide (Q8WXD0 43-80) was diluted to 1 µg/mL in 1X PBS and immobilized in separate 96-well ELISA plates (Nunc Maxisorp), 50 µL/well. The plates were then incubated overnight at 4 °C. The following day the plates were washed three times with ELISA wash buffer (PBS + 0.05% Tween-20) and then blocked with ELISA blocking buffer (PBS + 0.05% Tween-20 + 1% BSA), 200 µL/well, and incubated 1 h at room temperature on a shaker. Plates were again washed three times followed by the addition of the primary antibodies. Hybridoma supernatant was added neat, 50 µL/well; mouse serum was added 1:100 and then serially diluted 1:2 for 8 points, 50 µL/well. Purified antibodies were added 5 µg/mL in the first well and serially diluted down the plate 1:2 for 8 points, 50 µL/well. Primary antibody was incubated for 1 h at room temperature on a shaker. […] Stopping solution (2N Sulfuric acid) was added to the plates 50 µL/well, and then read on a plate reader (SpectraMax Molecular Devices) at 450 nm.

rat RXFP2 [3] = target: T3, rat RXFP2 (Rattus norvegicus, UniProt F7EMH8); assay: INSL3-stimulated CYP11B1 mRNA expression in H295R stably expressing rat RXFP2; format: cell-based; parameters: expressed in transfected cells; settings: INSL3 EC80 (3.5 nM), 48 h, qPCR; N = 2
T3 sequence (F7EMH8 20-737): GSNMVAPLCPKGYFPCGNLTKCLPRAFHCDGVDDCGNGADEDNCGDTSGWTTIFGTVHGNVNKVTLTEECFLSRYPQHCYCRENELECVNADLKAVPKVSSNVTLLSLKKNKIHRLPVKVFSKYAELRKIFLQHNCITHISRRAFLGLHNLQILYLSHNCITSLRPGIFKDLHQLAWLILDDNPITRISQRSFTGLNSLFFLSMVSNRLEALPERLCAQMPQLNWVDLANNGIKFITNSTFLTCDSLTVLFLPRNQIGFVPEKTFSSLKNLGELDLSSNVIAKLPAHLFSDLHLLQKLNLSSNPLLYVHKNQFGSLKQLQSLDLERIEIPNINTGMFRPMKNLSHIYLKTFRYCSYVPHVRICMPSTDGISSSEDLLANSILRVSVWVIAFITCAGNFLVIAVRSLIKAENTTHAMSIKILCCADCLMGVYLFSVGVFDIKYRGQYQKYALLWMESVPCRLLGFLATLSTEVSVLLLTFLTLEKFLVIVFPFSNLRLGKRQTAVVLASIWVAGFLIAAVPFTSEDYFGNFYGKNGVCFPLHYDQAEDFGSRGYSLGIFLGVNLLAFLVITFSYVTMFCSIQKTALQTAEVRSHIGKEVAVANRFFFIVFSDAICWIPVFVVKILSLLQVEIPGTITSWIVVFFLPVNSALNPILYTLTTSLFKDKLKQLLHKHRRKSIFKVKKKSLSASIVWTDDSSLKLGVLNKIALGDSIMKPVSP
Method: (§2) RXFP2 antagonists were added to H295R-rRXFP2 before addition of INSL3 EC80 (3.5 nM) for 48 h, whereupon the cells and supernatants were collected. CYP11B1 and CYP11B2 mRNA were determined by qPCR and the RXFP2 blocker potencies were calculated (Fig. 5a). Fifteen antibodies have IC50s < 50 nM, and three of the top antibodies (1F2, 4G6, and 2D4) were selected for evaluation in steroid hormone secretion assays by ELISA.
(§3) Data entered as XY table, with x = [Inhibitor] (nM) and y = CYP11B2 or CYP11B1 fold change.

rat RXFP2 [4] = target: T3, rat RXFP2; assay: INSL3-stimulated CYP11B2 mRNA expression in H295R stably expressing rat RXFP2; format: cell-based; parameters: expressed in transfected cells; settings: INSL3 EC80 (3.5 nM), 48 h, qPCR; N = 2
Method: as §2, §3

rat RXFP2 [5] = target: T3, rat RXFP2; assay: INSL3-stimulated cAMP assay in HEK293 stably expressing rat RXFP2; settings: INSL3 EC80-stimulated cAMP, stable expression, N = 2; for IC50: read-out: HEK293-rat RXFP2 cAMP IC50;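 as to all read-outs here: cAMP measured with an HitHunter kit in 384-well plates, 11-point dose–response curves up to 1 µM antibody, four-parameter variable-slope fit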
human RXFP2 = target: T4, human RXFP2 (Homo sapiens, UniProt Q8WXD0); assay: INSL3-stimulated cAMP assay in HEK293 stably expressing human RXFP2; settings: for IC50: read-out: HEK293-human RXFP2 cAMP IC50
T4 sequence (Q8WXD0 1-754): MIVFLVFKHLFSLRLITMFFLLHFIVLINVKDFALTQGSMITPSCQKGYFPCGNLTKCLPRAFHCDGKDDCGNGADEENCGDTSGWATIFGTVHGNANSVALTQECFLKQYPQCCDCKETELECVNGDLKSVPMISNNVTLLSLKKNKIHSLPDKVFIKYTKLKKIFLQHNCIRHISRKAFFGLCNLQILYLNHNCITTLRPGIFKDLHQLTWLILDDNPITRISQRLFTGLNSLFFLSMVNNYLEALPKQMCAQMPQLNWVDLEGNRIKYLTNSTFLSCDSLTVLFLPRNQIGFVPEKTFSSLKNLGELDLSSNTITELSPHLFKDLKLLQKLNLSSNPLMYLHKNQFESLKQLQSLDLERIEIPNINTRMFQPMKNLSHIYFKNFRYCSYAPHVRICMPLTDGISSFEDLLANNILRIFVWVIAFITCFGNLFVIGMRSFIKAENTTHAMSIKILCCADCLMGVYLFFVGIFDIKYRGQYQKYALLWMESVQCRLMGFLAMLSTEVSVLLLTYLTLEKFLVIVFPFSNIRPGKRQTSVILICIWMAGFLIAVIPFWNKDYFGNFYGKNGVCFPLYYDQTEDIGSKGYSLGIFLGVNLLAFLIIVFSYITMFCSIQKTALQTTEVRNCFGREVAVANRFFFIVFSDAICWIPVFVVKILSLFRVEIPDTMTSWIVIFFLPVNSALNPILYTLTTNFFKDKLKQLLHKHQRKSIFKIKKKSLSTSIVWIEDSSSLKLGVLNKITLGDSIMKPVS

rat LDLa-linker = assay: Biacore S200 binding to rat LDLa-linker protein; settings: Biacore S200, 1:1 fit; NB = No binding occurred
Method: as §1

rat RXFP1 = target: T5, rat RXFP1 (Rattus norvegicus, UniProt Q6R6I6); assay: Relaxin-stimulated cAMP assay in HEK293 stably expressing rat RXFP1; settings: three-point selectivity screen, n = 2
T5 sequence (Q6R6I6 1-758): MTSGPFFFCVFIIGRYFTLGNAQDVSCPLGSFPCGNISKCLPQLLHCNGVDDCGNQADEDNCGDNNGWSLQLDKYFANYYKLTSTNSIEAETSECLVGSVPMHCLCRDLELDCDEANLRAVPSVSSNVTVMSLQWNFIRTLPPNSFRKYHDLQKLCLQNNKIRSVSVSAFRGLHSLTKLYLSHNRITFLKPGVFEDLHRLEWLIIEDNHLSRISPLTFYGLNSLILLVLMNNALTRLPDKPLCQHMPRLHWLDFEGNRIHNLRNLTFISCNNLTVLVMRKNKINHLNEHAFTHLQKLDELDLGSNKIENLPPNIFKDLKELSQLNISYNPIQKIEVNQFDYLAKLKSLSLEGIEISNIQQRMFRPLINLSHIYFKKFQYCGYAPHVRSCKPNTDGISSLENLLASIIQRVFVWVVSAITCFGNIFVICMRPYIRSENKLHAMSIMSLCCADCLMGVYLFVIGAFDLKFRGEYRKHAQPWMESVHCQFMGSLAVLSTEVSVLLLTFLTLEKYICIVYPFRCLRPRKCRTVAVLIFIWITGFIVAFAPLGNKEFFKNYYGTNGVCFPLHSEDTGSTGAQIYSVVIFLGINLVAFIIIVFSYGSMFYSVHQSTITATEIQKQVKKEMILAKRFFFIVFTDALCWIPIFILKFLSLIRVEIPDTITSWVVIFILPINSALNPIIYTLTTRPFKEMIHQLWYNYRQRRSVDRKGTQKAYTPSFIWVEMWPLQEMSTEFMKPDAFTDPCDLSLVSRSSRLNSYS

[6] = male Wistar Han rats, 1 mg/kg s.c., n = 3, mean ± SD
[7] = INSL3 EC80-stimulated cAMP, stable expression, N = 2

B1: 4B1: Human/rat cross-reactive RXFP2 monoclonal antibody, rat IgG2b backbone; requires the linker domain for binding (antibody, V domains shown)
VH: QVQLQQSGAELVRPGSSVRISCKASGYAFSNSWINWVKQRPGQGLEWMGQIYPGDGNTNYNGRFKDKATLTADKSSSTAYMQLSSLTSEDSAVYFCARDHNYWGQGTTLTVSS
VL: DVVMTQTPLTLSVTIGQPASISCKSSQSLLYSNGKTYLNWLLQRPGQSPKRLIYLVSYLDSGVPDRFTGSGSGTNFILNISRVEADDLGVYYCLQGTHFPRTFGGGTKLEIK
cross reactivity to the human LDLa-linker (human LDLa-linker): cross reactivity
apparent volume of distribution ([1]; Wistar Han rats, 1 mg/kg sc.): 0.133 ± 0.005 L/kg
half-life ([1]; Wistar Han rats, 1 mg/kg sc.): 6.25 days
estimated dose to achieve tenfold higher IC50 HEK-rRXFP2 cAMP activity for approximately 28 days in rat ([1]; from trough concentration, dose-linearity assumed): approximately 1324 mg/kg
AUClast [1, 6]: 1540 ± 94 µg·h/mL
CL/F (apparent clearance) [1, 6]: 0.62 ± 0.03 mL/h/kg
Cmax [1, 6]: 5130 ± 334 ng/mL
T1/2 (terminal half-life) [1, 6]: 150 ± 9 h
Tmax [1, 6]: 96 ± 0 h
binding to linker-less human LDLa peptide [2]: requires the linker domain for binding
IC50 (rat RXFP2 [3]): 1.72 nM
IC50 (rat RXFP2 [4]): 0.75 nM
HEK293-rat RXFP2 cAMP % Max Response (rat RXFP2 [5]): 77.2%
IC50 (rat RXFP2 [5]): 35.8 nM
blockade of hRXFP2 (human RXFP2; INSL3-stimulated cAMP, HEK293-hRXFP2): strong blockade
HEK293-human RXFP2 cAMP % Max Response (human RXFP2; [7]): 84.2%
IC50 (human RXFP2; [7]): 16.9 nM

B2: 4G7: RXFP2 monoclonal antibody from hybridoma, recombinantly expressed in a rat IgG2b backbone (antibody, V domains shown)
VH: EVKLVESGGGLVQPGASLRLSCATSGFTFTDYYMSWVRQPPGKALEWLGFIRNKATGYTTEYSASVKGRFTISRDNSQSILYLQMNTLRAEDSATYYCARDLYYGDWYFDVWGAGTTVTVSS
VL: DIVLTQSPASLAVSLGQRATISCRASESVDKYGLSFMNWFQQKPGQPPKLLIYAASNQGSGVPARFSGSGSGTNFSLNIHPMEEDDTAMYFCQQSKEVPRTFGGGTKLEIK
Kd (rat LDLa-linker): > 20 nM
HEK293-rat RXFP2 cAMP % Max Response (rat RXFP2 [5]): 81.9%
IC50 (rat RXFP2 [5]): 45.5 nM
IC50 (human RXFP2; [7]): ~311 nM
blockade of rRXFP1 (relaxin-stimulated cAMP) (rat RXFP1): no blockade of rRXFP1 except for 4G7
